The text below walks through data of the supplement of paper PMC6609913.

The subject of this test is V-C8 (BRCA2-deficient hamster cells). Nature of the test: normalised cell viability (fraction of plate median); higher = more viable cells (less toxic). The note with it: 5 µM. An outline of the steps: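 Hamster V-C8 cells with and without restored BRCA2 were exposed in 96-well plates to library drugs at 5 μM for 3 days (screen 1) or 6 days (screen 2). Cell viability was scored by resazurin assay, then median-plate normalised, averaging triplicate wells.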

Where a name gives a salt, the structure may show the parent alone. ± gives the standard deviation of the averaged measurements. The full ranking holds about 1,300 compounds; the median of “normalised cell viability” is about 1, and the lowest 2% start at about 0.14. The list shows a part of the results.

Regarding `NC1CCN(c2c(F)cc3c(=O)c(C(=O)O)cn(C4CC4)c3c2Cl)C1` (configuration not stated) [Clinafloxacin], the normalised cell viability stood at 0.408 ± 0.034 (treatment time: 3 days) and 0.286 ± 0.0081 (treatment time: 6 days).
For `CCCNC(C)(C)COC(=O)c1ccccc1` [Meprylcaine hydrochloride], the normalised cell viability runs as follows: (treatment time: 3 days) 1 ± 0.042; (treatment time: 6 days) 1.25 ± 0.47.
On to `CCCc1nn(C)c2c(=O)[nH]c(-c3cc(S(=O)(=O)N4CCN(C)CC4)ccc3OCC)nc12` [Sildenafil], for which the normalised cell viability by setting is: (treatment time: 3 days) 1.08 ± 0.039; (treatment time: 6 days) 0.985 ± 0.078.
Turning to `CC(=O)Oc1ccc(C(c2ccc(OC(C)=O)cc2)c2ccccn2)cc1` [Bisacodyl], the normalised cell viability runs as follows: (treatment time: 3 days) 1.1 ± 0.039; (treatment time: 6 days) 0.99 ± 0.026.
The compound `CN1CCN2c3ccccc3Cc3ccccc3C2C1` (configuration not stated) [Mianserine hydrochloride] came in with a normalised cell viability (treatment time: 3 days) of 1.07 ± 0.063 and a normalised cell viability (treatment time: 6 days) of 1.1 ± 0.044.
On the same counts, the results for `N[C@@H](Cc1ccc(O)c(O)c1)C(=O)O` [Levodopa] are 0.937 ± 0.029 and 0.931 ± 0.035.
Regarding `O=C(O)CCC(=O)c1ccc(-c2ccccc2)cc1` [Fenbufen], the normalised cell viability is 0.976 ± 0.034 (treatment time: 3 days) and 0.98 ± 0.06 (treatment time: 6 days).
On the same counts, the results for `C[N+](C)(C)CCOC(N)=O` [Carbachol] are 1.03 ± 0.064 and 1.03 ± 0.058.
For `CC(C)(C)NC[C@H](O)COc1cccc2c1CCCC2=O` [(-) -Levobunolol hydrochloride], in that order: 1 ± 0.042 and 1.1 ± 0.19.
Take `Nc1ncn(C2OC(CO)C(O)C2O)c(=O)n1` (configuration not stated) [Azacytidine-5]: the normalised cell viability by setting is: (treatment time: 3 days) 0.793 ± 0.025; (treatment time: 6 days) 0.895 ± 0.033.
Take `O=C(NC(Cc1cc(=O)[nH]c2ccccc12)C(=O)O)c1ccc(Cl)cc1` (configuration not stated) [Rebamipide]: the normalised cell viability turned out to be 0.982 ± 0.04 (treatment time: 3 days) and 1.05 ± 0.06 (treatment time: 6 days).
On the same counts, the results for `O=C1c2c(O)ccc(O)c2C(=O)c2c(NCCNCCO)ccc(NCCNCCO)c21` [Mitoxantrone dihydrochloride] are 0.143 ± 0.0017 and 0.116 ± 0.011.
For the compound `CCOC(=O)C1=C(C)NC(C)=C(C(=O)OC)C1c1cccc(Cl)c1Cl` (configuration not stated) [Felodipine], the normalised cell viability is, setting by setting: (treatment time: 3 days) 0.83 ± 0.088; (treatment time: 6 days) 0.765 ± 0.015.
`C[C@H](CCC(=O)O)[C@H]1CC[C@H]2[C@@H]3C(=O)C[C@@H]4CC(=O)CC[C@]4(C)[C@H]3CC(=O)[C@]12C` [Dehydrocholic acid]: the normalised cell viability by setting is: (treatment time: 3 days) 1.22 ± 0.056; (treatment time: 6 days) 1.18 ± 0.031.
As for `CCCCC(=O)N(Cc1ccc(-c2ccccc2-c2nnn[nH]2)cc1)[C@H](C(=O)O)C(C)C` [Valsartan], the normalised cell viability amounted to 0.96 ± 0.038 (treatment time: 3 days) and 0.986 ± 0.052 (treatment time: 6 days).
On the same counts, the results for `OC(CCN1CCCCC1)(c1ccccc1)c1ccccc1` [Pridinol methanesulfonate salt] are 0.91 ± 0.055 and 0.914 ± 0.05.
In the case of `CCN(CC)CCNC(=O)c1cc(Br)c(N)cc1OC` [Bromopride], the normalised cell viability stood at 1.01 ± 0.054 (treatment time: 3 days) and 1.05 ± 0.009 (treatment time: 6 days).
On to `CC(C)NNC(=O)c1ccncc1` [Iproniazide phosphate], for which the normalised cell viability runs as follows: (treatment time: 3 days) 0.993 ± 0.012; (treatment time: 6 days) 0.993 ± 0.08.
For `O=C1c2cccc(O)c2C(=O)c2c(O)cccc21` [1,8-Dihydroxyanthraquinone], the normalised cell viability reads like this: (treatment time: 3 days) 0.838 ± 0.065; (treatment time: 6 days) 0.78 ± 0.021.
In the case of `CCOC(=O)C1=C(C)NC(C)=C(C(=O)OC)C1c1cccc([N+](=O)[O-])c1` (configuration not stated) [Nitrendipine], the normalised cell viability by setting is: (treatment time: 3 days) 0.963 ± 0.0098; (treatment time: 6 days) 0.971 ± 0.024.
Consider `CCn1cc(C(=O)O)c(=O)c2cc(F)c(N3CCNCC3)cc21` [Norfloxacin], for which the normalised cell viability runs as follows: (treatment time: 3 days) 1.01 ± 0.073; (treatment time: 6 days) 1.12 ± 0.036.
As to `O=C(c1ccc(OCCN2CCCCC2)cc1)c1c(-c2ccc(O)cc2)sc2cc(O)ccc12` [Raloxifene hydrochloride], the normalised cell viability (treatment time: 3 days) came out at 0.808 ± 0.031 and the normalised cell viability (treatment time: 6 days) is 0.803 ± 0.089.
Regarding `NS(=O)(=O)c1cc2c(cc1C(F)(F)F)NC(Cc1ccccc1)NS2(=O)=O` (configuration not stated) [Bendroflumethiazide], the normalised cell viability was determined as 0.999 ± 0.015 (treatment time: 3 days) and 1.06 ± 0.062 (treatment time: 6 days).
`CC(CN1c2ccccc2Sc2ccccc21)N(C)C` (configuration not stated) [Promethazine hydrochloride]: the normalised cell viability was 0.956 ± 0.019 (treatment time: 3 days) and 0.922 ± 0.058 (treatment time: 6 days).
For `Nc1nc(N)nc(-c2cc(Cl)ccc2Cl)n1` [Irsogladine maleate], in that order: 0.154 ± 0.0044 and 0.167 ± 0.0032.
On the same counts, the results for `CCN1CCCC1CNC(=O)c1cc(S(=O)(=O)CC)c(N)cc1OC` (configuration not stated) [Amisulpride] are 1.05 ± 0.044 and 1.07 ± 0.046.
On to `COc1cc(N)c(Cl)cc1C(=O)NC1CCN(Cc2ccccc2)CC1` [Clebopride maleate], for which the normalised cell viability is, setting by setting: (treatment time: 3 days) 0.916 ± 0.042; (treatment time: 6 days) 0.955 ± 0.031.
As to `COc1ccccc1OCCNCC(O)COc1cccc2[nH]c3ccccc3c12` (configuration not stated) [Carvedilol], the normalised cell viability is 0.799 ± 0.037 (treatment time: 3 days) and 0.69 ± 0.039 (treatment time: 6 days).
Regarding `CC(C)c1nc(CN(C)C(=O)N[C@H](C(=O)N[C@@H](Cc2ccccc2)C[C@H](O)[C@H](Cc2ccccc2)NC(=O)OCc2cncs2)C(C)C)cs1` [Ritonavir], the normalised cell viability by setting is: (treatment time: 3 days) 1.13 ± 0.073; (treatment time: 6 days) 1.07 ± 0.097.
For `CC(C)[C@H]1CC[C@H](C(=O)N[C@H](Cc2ccccc2)C(=O)O)CC1` [Nateglinide], in that order: 1.05 ± 0.068 and 1.06 ± 0.084.
Compound `CCCCOc1ccc(OCCCN2CCOCC2)cc1` [Pramoxine hydrochloride] registered a normalised cell viability (treatment time: 3 days) of 1.06 ± 0.053 and a normalised cell viability (treatment time: 6 days) of 0.995 ± 0.019.
For `CC1CCc2cc(F)cc3c(=O)c(C(=O)O)cn1c23` (configuration not stated) [Flumequine], the normalised cell viability runs as follows: (treatment time: 3 days) 1.03 ± 0.025; (treatment time: 6 days) 0.967 ± 0.043.
For `O=C(NCC1CCCCN1)c1cc(OCC(F)(F)F)ccc1OCC(F)(F)F` (configuration not stated) [Flecainide acetate], the normalised cell viability runs as follows: (treatment time: 3 days) 1.04 ± 0.085; (treatment time: 6 days) 1.08 ± 0.047.
For `COC(=O)Nc1nc2cc(C(=O)c3ccc(F)cc3)ccc2[nH]1` [Flubendazol], in that order: 0.148 ± 0.019 and 0.16 ± 0.0047.
On the same counts, the results for `CC(C)(C)NC(=O)[C@@H]1CN(Cc2cccnc2)CCN1C[C@@H](O)C[C@@H](Cc1ccccc1)C(=O)N[C@H]1c2ccccc2C[C@H]1O` [Indinavir sulfate] are 1.1 ± 0.079 and 1.04 ± 0.027.
For `O=C(O[C@@H]1C[C@@H]2C[C@H]3C[C@H](C1)N2CC3=O)c1c[nH]c2ccccc12` [Dolasetron mesilate], the normalised cell viability is 0.963 ± 0.027 (treatment time: 3 days) and 1.04 ± 0.032 (treatment time: 6 days).
